This note sets out measurements from patent US20230062800A1 (DENALI THERAPEUTICS, published 2023).

Broadly, the Kd is the concentration at which binding is half-saturated. Lower therefore signals a tighter complex.

The assay deals with T1, human apical domain TfR (human, UniProt P02786 198-378).
T1 construct: The SPR analyte is printed only as "human apical domain TfR"; also called human TfR; human transferrin receptor 1 apical domain
In words: Biacore SPR as in Example 2; steady-state fit. The method, then:
To determine whether SGSH-Fc fusion proteins with engineered TfR binding affects the ability of the modified Fc domain to interact with human TfR, the affinity of ETV: SGSH Bizyme Structure 1 (Example 1) for human TfR was assessed using a Biacore™ surface plasmon resonance assay. Biacore™ Series S CM5 sensor chips were immobilized with anti-human Fab (human Fab capture kit from GE Healthcare). 5 μg/mL of the SGSH-Fc fusion proteins were captured for 1 minute on each flow cell and serial 3-fold dilutions of human apical domain TfR were injected at a flow rate of 30 μL/min. Each sample was analyzed with a 3-minute association and a 3-minute dissociation. After each injection, the chip was regenerated using 10 mM glycine-HCl (pH 2.1). Binding response was corrected by subtracting the RU from a flow cell capturing an irrelevant IgG at similar density. Steady-state affinities were obtained by fitting the response at equilibrium against the concentration using Biacore™ T200 Evaluation Software v3.1. Biacore™ analysis established that SGSH-Fc fusion proteins with a TfR-binding site engineered into the Fc region bind to human TfR.
On the technique in general: Surface plasmon resonance follows binding to a sensor surface in real time, without labels.

human apical domain TfR, sequence (P02786 198-378 limits assumed): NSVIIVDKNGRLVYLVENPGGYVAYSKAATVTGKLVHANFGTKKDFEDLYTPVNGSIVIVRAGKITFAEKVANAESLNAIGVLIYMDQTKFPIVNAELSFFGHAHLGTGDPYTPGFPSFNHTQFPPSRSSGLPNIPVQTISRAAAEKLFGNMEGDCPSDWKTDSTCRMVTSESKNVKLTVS

B1: ETV:SGSH Bizyme Structure 1 (Fc fusion)
chain 1: RPRNALLLLADDGGFESGAYNNSAIATPHLDALARRSLLFRNAFTSVSSCSPSRASLLTGLPQHQNGMYGLHQDVHHFNSFDKVRSLPLLLSQAGVRTGIIGKKHVGPETVYPFDFAYTEENGSVLQVGRNITRIKLLVRKFLQTQDDRPFFLYVAFHDPHRCGHSQPQYGTFCEKFGNGESGMGRIPDWTPQAYDPLDVLVPYFVPNTPAARADLAAQYTTVGRMDQGVGLVLQELRDAGVLNDTLVIFTSDNGIPFPSGRTNLYWPGTAEPLLVSSPEHPKRWGQVSEAYVSLLDLTPTILDWFSIPYPSYAIFGSKTIHLTGRSLLPALEAEPLWATVFGSQSHHEVTMSYPMRSVQHRHFRLVHNLNFKMPFPIDQDFYVSPTFQDLLNRTTAGQPTGWYKDLRHYYYRARWELYDRSRDPHETQNLATDPRFAQLLEMLRDQLAKWQWETHDPWVCAPDGVLEEKLSPQCQPLHNELGGGGS[in this place human IgG1 Fc with changes]
chain 2: RPRNALLLLADDGGFESGAYNNSAIATPHLDALARRSLLFRNAFTSVSSCSPSRASLLTGLPQHQNGMYGLHQDVHHFNSFDKVRSLPLLLSQAGVRTGIIGKKHVGPETVYPFDFAYTEENGSVLQVGRNITRIKLLVRKFLQTQDDRPFFLYVAFHDPHRCGHSQPQYGTFCEKFGNGESGMGRIPDWTPQAYDPLDVLVPYFVPNTPAARADLAAQYTTVGRMDQGVGLVLQELRDAGVLNDTLVIFTSDNGIPFPSGRTNLYWPGTAEPLLVSSPEHPKRWGQVSEAYVSLLDLTPTILDWFSIPYPSYAIFGSKTIHLTGRSLLPALEAEPLWATVFGSQSHHEVTMSYPMRSVQHRHFRLVHNLNFKMPFPIDQDFYVSPTFQDLLNRTTAGQPTGWYKDLRHYYYRARWELYDRSRDPHETQNLATDPRFAQLLEMLRDQLAKWQWETHDPWVCAPDGVLEEKLSPQCQPLHNELGGGGSDKTHTCPPCPAPEAAGGPSVFLFPPKPKDTLMISRTPEVTCVVVDVSHEDPEVKFNWYVDGVEVHNAKTKPREEQYNSTYRVVSVLTVLHQDWLNGKEYKCKVSNKALPAPIEKTISKAKGQPREPQVYTLPPSRDELTKNQVSLWCLVKGFYPSDIAVEWESYGTEWANYKTTPPVLDSDGSFFLYSKLTVTKEEWQQGFVFSCSVMHEALHNHYTQKSLSLSPGK
modifications: SGSH cysteine at position 70 (full-length SGSH numbering) largely converted to formylglycine (fGly 98% in Table 2); the fGly form is SEQ ID NO:91; SGSH cysteine at position 70 (full-length SGSH numbering) largely converted to formylglycine (fGly 98% in Table 2); the fGly form is SEQ ID NO:63
notes: Heterodimer of two SGSH-Fc fusion polypeptides; The preparation may be a mixture of processed and unprocessed forms; also called first "N-terminal bizyme" SGSH-Fc fusion protein
On to B1, for which the Kd stood at 290 nM.
